Consider 1 molecule from PMC4999505, “Linear ubiquitination is involved in the pathogenesis of optineurin-associated amyotrophic lateral sclerosis” (Nature Communications, 2016).

The target of the experiment is T1, linear (M1-linked) tetraubiquitin (UniProt P0CG48 part only; P0CG48 part only; P0CG48 part only; P0CG48 part only).
T1 construct: ubiquitin, first unit of four joined head to tail (M1-linked); ubiquitin, second unit; ubiquitin, third unit; ubiquitin, fourth unit; also called linear tetraubiquitin; linear tetra-ubiquitin; source: E. coli, purified (heat treatment, HiTrap SP, Superdex 200)
In words: SPR; Biacore X100, CM5 chip; linear tetraubiquitin immobilised by amine coupling (around 500 RU), BSA on the reference cell; OPTN injected at 30 μl/min for 120 s, dissociation 300 s; HBS-EP+ (10 mM Hepes-NaOH pH 7.4, 150 mM NaCl, 0.05% Tween 20, 3 mM EDTA), 25 °C; global fit to a 1:1 interaction model. The settings on record: both partners purified. In general terms: SPR reads the build-up and loss of mass on a sensor chip optically.

T1 sequence (P0CG48 1-304): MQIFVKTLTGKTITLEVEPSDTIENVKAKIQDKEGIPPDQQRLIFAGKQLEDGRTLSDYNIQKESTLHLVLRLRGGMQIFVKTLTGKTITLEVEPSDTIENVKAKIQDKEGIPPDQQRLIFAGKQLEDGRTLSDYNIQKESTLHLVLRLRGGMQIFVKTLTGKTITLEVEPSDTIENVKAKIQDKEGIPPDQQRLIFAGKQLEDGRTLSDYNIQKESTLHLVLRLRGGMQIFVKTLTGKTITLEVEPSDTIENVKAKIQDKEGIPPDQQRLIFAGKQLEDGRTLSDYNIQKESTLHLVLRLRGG

B1: full-length OPTN-WT protein used as SPR analyte (natural protein)
chain: not shown
notes: optineurin (OPTN), full length; it may be the MBP fusion m11; also called OPTN protein
Broadly, the Kd is the constant that tells how readily two partners part at equilibrium. The low end stands for a tighter complex, the high end for a looser complex. The term koff denotes a measure of how fast the partners let go of each other. Higher therefore signals fast dissociation. For orientation: kon means the second-order rate constant of association. A higher kon goes with fast association. Molecule B1 yielded a Kd of 1020 nM, an off-rate constant (koff) of 0.00519 s⁻¹ and a kon of 5090 M⁻¹ s⁻¹.
